# Structures can show the parent of a compound that is named as a salt. Some of the results follow. Many values rest on one well or one pass, so single values are uncertain.
# Tested on: Mef2d microexon dual Nano/Firefly luciferase splicing reporter in Neuro-2a cells
# Test: B-score of Firefly/Nano luminescence ratio, V1 Mef2d microexon reporter (B-score (plate-normalised)); higher = more Mef2d microexon inclusion
# Conditions: 24 h
row,Compound,B-score
1,COc1ccc(Cl)cc1NC(=O)Nc1ccc(Br)c(C(F)(F)F)c1 (4 µM),5.14
2,O=C(Nc1ccc(-n2nc(C(F)(F)F)cc2-c2cccs2)cc1)c1ccccc1 (4 µM),6.63
3,N#Cc1cc([N+](=O)[O-])cnc1SCC(=O)Nc1ccccc1 (4 µM),-2.87
4,COc1cc2c(cc1OC)-c1[nH]nc(Nc3cccc(F)c3)c1C2 (0.5 µM),-6.53
5,COc1ccc(C=C2CCCc3ccccc3C2=O)cc1 (4 µM),-2.16
6,Clc1ccc2nc(-c3ccc4c(c3)OCCO4)cn2c1 (4 µM),-2.13
7,COc1cccc2c1C(=O)c1c(O)c3c(c(O)c1C2=O)C[C@@](O)(C(C)=O)C[C@@H]3O[C@H]1C[C@H](N)[C@H](O)[C@H](C)O1 [Daunorubicin hydrochloride] (4 µM),-18.8
8,CC(C)(C)c1ccc2[nH]c3c(c2c1)CCCC3=O (4 µM),-4.69
9,COc1ccc(OC)c(C(C)=O)c1OCc1ccccc1 (4 µM),3.72
10,Cc1ccc(NC(=O)c2coc(Br)c2)nc1 (4 µM),-2.4
11,CSc1c(C#N)c(-c2cccs2)nn1CNC(=O)Nc1cc(C(F)(F)F)cc(C(F)(F)F)c1 (4 µM),5.57
12,Cn1cc(/C=C2\C(=O)Nc3cccnc32)c2ccccc21 (4 µM),3.01
13,CS(=O)(=O)c1ccc(C(F)(F)F)cc1[N+](=O)[O-] (4 µM),-1.9
14,"OCCNCCCOc1cccc(Cl)c1Cl [2,3-DCPE hydrochloride] (4 µM)",11.3
15,N#CC(C#N)=CC=C(Sc1ncc(C(F)(F)F)cc1Cl)c1ccc(Cl)cc1 (4 µM),7.6
16,CC(C)/N=c1\cc2n(-c3ccc(Cl)cc3)c3ccccc3nc-2cc1Nc1ccc(Cl)cc1 [Clofazimine] (4 µM),7.8
17,CC(C)ON([C@@H](C(=O)NO)C(C)C)S(=O)(=O)c1ccc(-c2ccccc2)cc1 (4 µM),13.1
18,O=C(NC=Cc1ccsc1)Nc1cc(C(F)(F)F)cc(C(F)(F)F)c1 (4 µM),4.59
19,CCCCC1C(=O)N(c2ccccc2)N(c2ccc(O)cc2)C1=O (stereo not given) [Oxyphenbutazone] (4 µM),-5.17
20,COc1cc(NC(C)CCCN)c2ncccc2c1 (stereo not given) [Primaquine diphosphate] (4 µM),7.76

row,Compound,B-score
1,Cc1noc(C)c1C(=O)ON=C(N)c1cc(C(F)(F)F)cc(C(F)(F)F)c1 (4 µM),11.3
2,COC(=O)c1ccccc1NC(=O)Cc1coc2cc(C)cc(C)c12 (4 µM),-9.25
3,COc1ccc(C=C(C#N)c2ccc([N+](=O)[O-])cc2)cc1[N+](=O)[O-] (4 µM),6.58
4,C=CCn1c(=O)c2cnc(Nc3ccc(N4CCN(C)CC4)cc3)nc2n1-c1cccc(C(C)(C)O)n1 (0.5 µM),-4.07
5,N#Cc1c(O)nsc1Nc1ccccc1C(F)(F)F (4 µM),-1.35
6,CC(C)(C)c1cc2nc(C(F)(F)F)cc(N3CCN(Nc4cc(Cl)cc(Cl)c4)CC3)n2n1 (4 µM),5.57
7,CCOC(=O)c1c(N2C(=O)C=CC2=O)sc2c1CCCC2 (4 µM),7.47
8,CC1S(=O)C(C)S(=O)C(C)S1=O (stereo not given) (4 µM),-8.09
9,O=C(NCc1nnc2ccccn12)Nc1ccc(F)cc1 (4 µM),-5.4
10,Cc1cc(C)c(N(Cc2ccccc2)S(=O)(=O)c2ccc(OCCNC(=O)c3cc4ccccc4o3)cc2)c(C(=O)NO)c1 (4 µM),3.81
11,CCS(=O)(=O)Nc1ccc2c(c1)/C(=C(/Nc1ccc(CN3CCCCC3)cc1)c1ccccc1)C(=O)N2 [Hesperadin] (0.5 µM),-1.65
12,Clc1ccc(N=Cc2c(-c3ccccc3)nc3n2CCS3)cc1 (4 µM),3.97
13,CC(Oc1ccc(F)cc1F)C(=O)Nc1sccc1C(=O)Nc1ccc([N+](=O)[O-])cc1 (stereo not given) (4 µM),-2.14
14,CSc1sc(C(=O)Nc2cc(C(F)(F)F)cc(C(F)(F)F)c2)c(-c2ccc(Cl)cc2)c1C#N (4 µM),-4.64
15,O=C(Oc1ccc2c(c1)oc(=O)c1ccccc12)c1ccccc1Cl (4 µM),2.87
16,CC1=NNC(=O)/C1=N\Nc1ccccc1C (4 µM),0.674
17,COc1ccc(-c2ccc3ncc4c(c3c2)n(-c2ccc(N3CCNCC3)c(C(F)(F)F)c2)c(=O)n4C)cn1 (0.5 µM),-16.4
18,Cc1cc(Nc2cc(C)c(C#N)c(NC(C)CCCC(C)(C)O)n2)n[nH]1 (stereo not given) [TC-A 2317 hydrochloride] (0.5 µM),7.66
19,C=CC[C@@H]1C=C(C)C[C@H](C)C[C@H](OC)[C@H]2O[C@@](O)(C(=O)C(=O)N3CCCC[C@H]3C(=O)O[C@H](/C(C)=C/[C@@H]3CC[C@@H](O)[C@H](OC)C3)[C@H](C)[C@@H](O)CC1=O)[C@H](C)C[C@@H]2OC (4 µM),4.92
20,COc1cccc(OCCCN)c1-c1cc(Nc2cnc(C#N)cn2)n[nH]1 (0.5 µM),-5.56
